Laboratory results as given in PubChem BioAssay AID743279 (National Center for Advancing Translational Sciences (NCATS), 2014).
Where “and” joins values, the source holds several entries; their conditions need not be identical. Identical values can stand only once. Among all 360,000 compounds or so, about 17,000 (4.7%) were called active. Inconclusive means that the source gave no clear call. Such entries were picked first, then a sample of the others. Rule as the data show it: active = activity change below about -50%; inconclusive = mostly about -30% to -49%; inactive = weaker than that.

experiment: qHTS for Inhibitors of Inflammasome Signaling: IL-1-beta AlphaLISA Primary Screen; details: THP-1 LPS/ATP IL-1B secretion, 16 h; at 57.5 µM, stronger effect = lower value
Summary of the method: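 Secreted IL-1B measured by AlphaLISA bead assay after 16 h compound exposure of THP-1 cells; compounds (final up to 57.5 uM) added 1 h before LPS (250 ng/mL) and ATP (1.25 mM) stimulation; lower signal means less secretion.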
% is scaled to controls: 0 for no effect and ±100 for the full control effect.

| Structure (SMILES) | activity change |
| --- | --- |
| CN1/C(=C/C=C(/C#N)C(N)=O)C(C)(C)c2ccccc21 | inactive: -7.36% |
| COc1ccc(CNC(=O)CN2CCN(C(c3ccccc3)c3ccccc3)CC2)cc1 | active: -64.3% |
| CCOc1ccc2c(c1)C(N(CCN1CCOCC1)C(=S)Nc1ccccc1OC)CC(C)(C)O2 (stereo unspecified) | inconclusive: -31.7% |
| Cc1ccc(N2CCN(C3=NC(=O)/C(=C\c4cn[nH]c4-c4ccccc4)S3)CC2)cc1 | inconclusive: -35.5% |
| O=C(OCc1ccccc1F)c1cc(S(=O)(=O)N2CCCCC2)ccc1N1CCOCC1 | inactive: -13.4% |
| CCCCN(C(=O)CCC(=O)Nc1cc(C)on1)C(C(=O)NC1CCCC1)c1ccccc1OCC (stereo unspecified) | inconclusive: -49.9% |
| CCN1CCN(C(c2ccccc2)c2nnnn2Cc2ccc3c(c2)OCO3)CC1 (stereo unspecified) | inconclusive: -37.8% |
| COCCN(Cc1cc2ccc(C)cc2[nH]c1=O)S(=O)(=O)c1ccccc1 | inactive: 12.2% |
| CCOC(=O)c1c(C)n(C)c2ccc(OCC(O)CN3CCC(C)CC3)cc12 (stereo unspecified) | inconclusive: -43.8% |
| CCc1ccc(CNC(=O)CCc2cn(C)c3ccccc23)cc1 | inactive: 15.9% |
| COc1ccc(OCc2nnc(SCC(=O)N(C)Cc3ccccc3)n2N)cc1 | inactive: -2.39% |
| CCC1=C(OC(=O)N(CC)CC)N2C(=O)OC(=NCCc3c[nH]c4ccccc34)[C@]2(Cc2ccccc2)[C@H]2C1=CC[C@H]1C(=O)N(CC(=O)OC)C(=O)[C@H]12 | inconclusive: -34.2% |
| CC(=O)N1CCC(C(=O)OCc2ccc(Cl)cc2)(c2ccccc2)CC1 | inconclusive: -44.8% |
| COc1ccc(/C=C2\SC(=S)N(C(C)C(=O)NC3C=CS(=O)(=O)C3)C2=O)cc1 (stereo unspecified) | active: -61.1% |
| CN(C)S(=O)(=O)Oc1cccc(C(=O)Nc2ccc(Cl)cc2)c1 | active: -62.9% |
| Cc1ccc(S(=O)(=O)N2CCN(C(=O)CCC(=O)Nc3ccc(Br)c(C)c3)CC2)cc1 | inconclusive: -36.3% |
| CC(C)=CCC/C(C)=C/CNC(=O)C[C@H]1C[C@H](C(=O)N2CCOCC2)[C@@]2(C)c3[nH]c4ccc(Cl)cc4c3CCN2C1=O | active: -65.1% |
| Cc1nn(CCC(=O)NCc2ccc(N(C)C)cc2)c(=O)c2nn(-c3ccccc3)c(C)c12 | inconclusive: -31.2% |
| NC1=NC(=Nc2ccc(Br)cc2)c2ccccc21 | active: -101% |
| O=C(Nc1ccc(N2CCCC2)cc1)c1cccc(F)c1 | inconclusive: -34.9% |
| CCC1Nc2ncnc(N3CCOCC3)c2N(Cc2ccccc2)C1=O (stereo unspecified) | inactive: 15.8% |

| Structure (SMILES) | activity change |
| --- | --- |
| COc1ccc(NC(=O)c2cc(-c3cc(F)ccc3OC)n[nH]2)c(C)c1 | inconclusive: -42.8% |
| N#C/C(=C/c1ccc(F)cc1)c1nnc(NC(=O)c2ccccc2)s1 | inactive: -6.88% |
| COc1c(Br)cc(Br)cc1/C=C1/C(=O)N=C(N)N1C | active: -53.6% |
| O=C(NCCc1ccccc1)NC1CCCCC1 | inactive: -13.2% |
| Cc1cccc(C)c1OCc1cc(C(=O)N(Cc2c(C)nn(C)c2C)C2CC2)no1 | inconclusive: -34.7% |
| O=C(Cc1cccc(NC(=O)C2CCCN(C(=O)CCc3ccccc3)C2)c1)Nc1ccc(C(=O)N2CCOCC2)cc1 (stereo unspecified) | inactive: 1.96% |
| CC(C)n1c(COc2ccccc2)nc2ccccc21 | inconclusive: -36.5% |
| CS(=O)(=O)N1CCN(c2ccc(NC(=O)c3ccc([N+](=O)[O-])o3)cc2)CC1 | active: -96.8% |
| COc1cc(/C=C/c2nc3ccccc3c(=O)[nH]2)cc(OC)c1OC | inconclusive: -30.4% |
| Cc1oc(C(C)(C)C)cc1-c1cc(NC(=O)c2ccc([N+](=O)[O-])cc2)n[nH]1 | active: -63.3% |
| COc1ccc(CCC(=O)Nc2ccccc2C(F)(F)F)cc1 | inactive: -2.5% |
| Cc1ccc(S(=O)(=O)N2CCCC(c3nc4c(nnn4Cc4ccc5c(c4)OCCO5)c(=O)[nH]3)C2)cc1 (stereo unspecified) | inconclusive: -45.5% |
| Fc1ccccc1C1CCN(Cc2nc(COc3ccccc3)no2)C1 (stereo unspecified) | inactive: 3.88% |
| CC(=O)Nc1nc(C)c(-c2csc(Nc3ccccn3)n2)s1 | active: -78.9% and inconclusive: -40.6% |
| C[C@@]12C(=O)N(Cc3ccco3)CC(=O)N1[C@H]1c3cc(Cl)ccc3OC[C@@H]1[C@@H]2c1ccccc1 | inconclusive: -39.4% |
| CCOc1ccc(/C=N/n2c(-c3ccccc3)n[nH]c2=S)cc1 | inconclusive: -45.1% |
| CCOC(=O)[C@]12CCCC=C1N(Cc1ccccc1)C(=O)[C@H](CC(=O)N1CCC(c3ccccc3)CC1)C2 | inactive: -4.97% |
| Cn1c(N)c(C(=O)CCl)c(=O)n(C)c1=O | inconclusive: -30% |
| COc1ccc(C(=O)Nc2cccc(NC(=O)c3cccs3)c2)cc1OC | inconclusive: -31.5% |
| COC(=O)C1=C(C)N=c2s/c(=C/c3cccs3)c(=O)n2C1c1ccc(F)cc1 (stereo unspecified) | inconclusive: -49% |
